# According to the supplement of paper PMC8728848:
# The list shows a part of the results.
# Columns and labels:
# Assay in all cases: glycan array binding signal (z-score within array); higher = stronger binding
# Conditions in all cases: glycan notation: IUPAC condensed, linker removed
# [1] = biological target: Fuc(a1-3)[Gal(b1-4)]GlcNAc6S
# Summary of the method: (§1)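 Arrays were curated from the Consortium for Functional Glycomics database, 3228 in total, and kept only where the protein sequence was available. Binding is expressed as a within-array Z-score. This score was averaged across arrays of the same protein sequence at different concentrations or buffers and across linkers, and negative values can be read as non-binding.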
# [2] = biological target: Fuc(a1-3)[Gal3S(b1-4)]Glc6S
# Summary of the method: as §1
# [3] = biological target: Fuc(a1-3)[Gal3S(b1-4)]GlcNAc
# Summary of the method: as §1
# [4] = biological target: Fuc(a1-3)[Gal3S(b1-4)]GlcNAc6S
# Summary of the method: as §1
# [5] = biological target: Fuc(a1-3)[GalNAc(b1-4)]GlcNAc
# Summary of the method: as §1
# [6] = biological target: Fuc(a1-4)GlcNAc
# Summary of the method: as §1
# [7] = biological target: Fuc(b1-3)GlcNAc
# Summary of the method: as §1
# [8] = biological target: Gal(a1-2)Gal
# Summary of the method: as §1
# [9] = biological target: Gal(a1-3)Gal
# Summary of the method: as §1
# [10] = biological target: Gal(a1-3)Gal(b1-3)GlcNAc
# Summary of the method: as §1
# [11] = biological target: Gal(a1-3)Gal(b1-3)GlcNAc(b1-2)Man(a1-3)[Gal(a1-3)Gal(b1-3)GlcNAc(b1-2)Man(a1-6)]Man(b1-4)GlcNAc(b1-4)GlcNAc
# Summary of the method: as §1
# [12] = biological target: Gal(a1-3)Gal(b1-3)[Fuc(a1-4)]GlcNAc(b1-2)Man(a1-3)[Gal(a1-3)Gal(b1-3)[Fuc(a1-4)]GlcNAc(b1-2)Man(a1-6)]Man(b1-4)GlcNAc(b1-4)GlcNAc
# Summary of the method: as §1
# [13] = biological target: Gal(a1-3)Gal(b1-4)Glc
# Summary of the method: as §1
# [14] = biological target: Gal(a1-3)Gal(b1-4)GlcNAc
# Summary of the method: as §1
# [15] = biological target: Gal(a1-3)Gal(b1-4)GlcNAc(b1-3)GalNAc
# Summary of the method: as §1
# [16] = biological target: Gal(a1-3)Gal(b1-4)[Fuc(a1-3)]GlcNAc
# Summary of the method: as §1
# [17] = biological target: Gal(a1-3)Gal(b1-4)[Fuc(a1-3)]GlcNAc(b1-2)Man(a1-3)[Gal(a1-3)Gal(b1-4)[Fuc(a1-3)]GlcNAc(b1-2)Man(a1-6)]Man(b1-4)GlcNAc(b1-4)GlcNAc
# Summary of the method: as §1
# [18] = biological target: Gal(a1-3)GalNAc
# Summary of the method: as §1
# [19] = biological target: Gal(a1-3)[Gal(a1-4)]Gal(b1-4)GlcNAc
# Summary of the method: as §1
# [20] = biological target: Gal(a1-4)Gal(b1-3)GlcNAc(b1-2)Man(a1-3)[Gal(a1-4)Gal(b1-3)GlcNAc(b1-2)Man(a1-6)]Man(b1-4)GlcNAc(b1-4)GlcNAc
# Summary of the method: as §1
# [21] = biological target: Gal(a1-4)Gal(b1-4)Glc
# Summary of the method: as §1
# [22] = biological target: Gal(a1-4)Gal(b1-4)GlcNAc
# Summary of the method: as §1
# [23] = biological target: Gal(a1-4)Gal(b1-4)GlcNAc(b1-2)Man(a1-3)[Gal(a1-4)Gal(b1-4)GlcNAc(b1-2)Man(a1-6)]Man(b1-4)GlcNAc(b1-4)GlcNAc
# Summary of the method: as §1
# [24] = biological target: Gal(a1-4)Gal(b1-4)GlcNAc(b1-3)Gal(b1-4)Glc
# Summary of the method: as §1
# [25] = biological target: Gal(a1-4)GlcNAc
# Summary of the method: as §1
# [26] = biological target: Gal(a1-6)Glc
# Summary of the method: as §1
# [27] = biological target: Gal(b1-2)Gal
# Summary of the method: as §1
# [28] = biological target: Gal(b1-3)Gal
# Summary of the method: as §1
# [29] = biological target: Gal(b1-3)Gal(b1-4)GlcNAc
# Summary of the method: as §1
# [30] = biological target: Gal(b1-3)Gal(b1-4)GlcNAc(b1-2)Man(a1-3)[Gal(b1-3)Gal(b1-4)GlcNAc(b1-2)Man(a1-6)]Man(b1-4)GlcNAc(b1-4)GlcNAc
# Summary of the method: as §1
# [31] = biological target: Gal(b1-3)GalNAc
# Summary of the method: as §1
# [32] = biological target: Gal(b1-3)GalNAc(a1-3)[Fuc(a1-2)]Gal(b1-4)Glc
# Summary of the method: as §1
# [33] = biological target: Gal(b1-3)GalNAc(a1-3)[Fuc(a1-2)]Gal(b1-4)GlcNAc
# Summary of the method: as §1
# [34] = biological target: Gal(b1-3)GalNAc(b1-3)Gal(a1-4)Gal(b1-4)Glc
# Summary of the method: as §1
# [35] = biological target: Gal(b1-3)GalNAc(b1-4)Gal(b1-4)Glc
# Summary of the method: as §1
# [36] = biological target: Gal(b1-3)GalNAc(b1-4)[Neu5Ac(a2-3)]Gal(b1-4)Glc
# Summary of the method: as §1
# [37] = biological target: Gal(b1-3)GlcNAc
# Summary of the method: as §1
# [38] = biological target: Gal(b1-3)GlcNAc(a1-6)Gal(b1-4)GlcNAc
# Summary of the method: as §1
# [39] = biological target: Gal(b1-3)GlcNAc(b1-2)Man(a1-3)[Gal(b1-3)GlcNAc(b1-2)Man(a1-6)]Man(b1-4)GlcNAc(b1-4)GlcNAc
# Summary of the method: as §1
# [40] = biological target: Gal(b1-3)GlcNAc(b1-2)Man(a1-3)[Gal(b1-3)GlcNAc(b1-2)Man(a1-6)]Man(b1-4)GlcNAc(b1-4)[Fuc(a1-6)]GlcNAc
# Summary of the method: as §1
# [41] = biological target: Gal(b1-3)GlcNAc(b1-3)Gal(b1-3)GlcNAc
# Summary of the method: as §1
# [42] = biological target: Gal(b1-3)GlcNAc(b1-3)Gal(b1-4)Glc
# Summary of the method: as §1
# [43] = biological target: Gal(b1-3)GlcNAc(b1-3)Gal(b1-4)GlcNAc
# Summary of the method: as §1
# [44] = biological target: Gal(b1-3)GlcNAc(b1-3)Gal(b1-4)GlcNAc(b1-6)[Gal(b1-3)GlcNAc(b1-3)]Gal(b1-4)Glc
# Summary of the method: as §1
# [45] = biological target: Gal(b1-3)GlcNAc(b1-3)Gal(b1-4)[Fuc(a1-3)]GlcNAc(b1-6)[Gal(b1-3)GlcNAc(b1-3)]Gal(b1-4)Glc
# Summary of the method: as §1
binder,measurement,setting,value
"Mincle (Homo sapiens), Q9ULY5 (protein) MNSSKSSETQCTERGCFSSQMFLWTVAGIPILFLSACFITRCVVTFRIFQTCDEKKFQLPENFTELSCYNYGSGSVKNCCPLNWEYFQSSCYFFSTDTISWALSLKNCSAMGAHLVVINSQEEQEFLSYKKPKMREFFIGLSDQVVEGQWQWVDGTPLTKSLSFWDVGEPNNIATLEDCATMRDSSNPRQNWNDVTCFLNYFRICEMVGINPLNKGKSL",glycan array binding signal (z-score),[1],0.036
same,glycan array binding signal (z-score),[2],0.712
same,glycan array binding signal (z-score),[3],-0.043
same,glycan array binding signal (z-score),[4],0.843
same,glycan array binding signal (z-score),[5],-0.335
same,glycan array binding signal (z-score),[6],-0.457
same,glycan array binding signal (z-score),[7],-0.396
same,glycan array binding signal (z-score),[8],-0.433
same,glycan array binding signal (z-score),[9],-0.01
same,glycan array binding signal (z-score),[10],-0.143
same,glycan array binding signal (z-score),[11],4.69
same,glycan array binding signal (z-score),[12],-0.19
same,glycan array binding signal (z-score),[13],-0.487
same,glycan array binding signal (z-score),[14],-0.145
same,glycan array binding signal (z-score),[15],-0.421
same,glycan array binding signal (z-score),[16],0.004
same,glycan array binding signal (z-score),[17],0.526
same,glycan array binding signal (z-score),[18],-0.251
same,glycan array binding signal (z-score),[19],-0.526
same,glycan array binding signal (z-score),[20],0.054
same,glycan array binding signal (z-score),[21],-0.217
same,glycan array binding signal (z-score),[22],-0.248
same,glycan array binding signal (z-score),[23],3.26
same,glycan array binding signal (z-score),[24],0.635
same,glycan array binding signal (z-score),[25],-0.215
same,glycan array binding signal (z-score),[26],-0.226
same,glycan array binding signal (z-score),[27],-0.483
same,glycan array binding signal (z-score),[28],-0.357
same,glycan array binding signal (z-score),[29],-0.566
same,glycan array binding signal (z-score),[30],0.477
same,glycan array binding signal (z-score),[31],-0.406
same,glycan array binding signal (z-score),[32],-0.382
same,glycan array binding signal (z-score),[33],-0.127
same,glycan array binding signal (z-score),[34],-0.251
same,glycan array binding signal (z-score),[35],-0.412
same,glycan array binding signal (z-score),[36],-0.298
same,glycan array binding signal (z-score),[37],-0.385
same,glycan array binding signal (z-score),[38],-0.062
same,glycan array binding signal (z-score),[39],0.064
same,glycan array binding signal (z-score),[40],0.118
same,glycan array binding signal (z-score),[41],-0.365
same,glycan array binding signal (z-score),[42],-0.33
same,glycan array binding signal (z-score),[43],-0.283
same,glycan array binding signal (z-score),[44],6.4
same,glycan array binding signal (z-score),[45],0.04
